# In the RNAGym collection of RNA variant scans (doi:10.1073/pnas.2313332121):
# Variants at the background level are over-represented here.
# B1: TPR 5TU (parent)
# chain: GGAUCUUCUCGAUCUAACAAAAAAGACAAAUCUGCCACAAAGCUUGAGAGCAUCUUCGGAUGCAGAGGCGGCAGCCUUCGGUGGCGCGAUAGCGCCAACGUUCUCAACUAUGACACGCAAAACGCGUGCUCCGUUGAAUGGAGUUUAUCAUG
# Variants of: B1
# Experiment: polymerase ribozyme fitness, log enrichment relative to wild type (log ratio); higher = more active; in vitro selection for triplet polymerase activity
# Summary of the method: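 Mutant libraries for each subunit of a heterodimeric triplet polymerase ribozyme were made by PCR and then transcribed. Each library underwent one round of in vitro selection in triplicate: annealing with a biotinylated primer, the partner subunit and triplets, frozen incubation at −7 °C, gel excision of extended constructs, streptavidin-bead capture and RT-PCR. Input and output libraries were Illumina-sequenced, and only genotypes with ≥10 input reads and ≥1 read per output were kept. Fitness is the logarithm, base 2, of genotype enrichment over wild-type enrichment, computed from inverse-variance-weighted replicate averages.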
row,Variant,polymerase ribozyme fitness (log ratio)
1,A16G C18G C27U A66U G83U C108U C129A A138C U148G,≤ -4.2
2,A16G A26U U31C U82A A106U C131A U139G G141C,≤ -4.2
3,A16G G94A G143C,-3.22
4,A17U G50U C63U C93U C103U G126A C132U,-3.74
5,A16U G133C U146A,-3.79
6,A17C C27G A28G G70C A119G U127G U148C,≤ -4.2
7,A17G A30U C35G U53A C87G G92U C96A U145C,≤ -4.2
8,A17U A37U G68C U90C C93U C105U,≤ -4.2
9,A16G U78A C93G,≤ -4.2
10,A17U A60U,-0.153
11,A16U U53A C87A,≤ -4.2
12,A17U A26C C76A G86A C96A C105G A115G,≤ -4.2
13,A16G U82A U145G,-1.4
14,A17U G42A A91C A122U G136C,≤ -4.2
15,A16U C18G A37C U56A U130G G136A,≤ -4.2
16,A16U C27G A28U U31C G74U U82A,≤ -4.2
17,A17U A110U,≤ -4.2
18,A17C A40G U55A G86C C103A A119C,≤ -4.2
19,A16U C36A A37U A47C C79A G94A A110G,≤ -4.2
20,C18A A19U G25A A47U G50A G62U C96G U104G G143A,≤ -4.2
21,A16G C57A,-0.592

row,Variant,polymerase ribozyme fitness (log ratio)
1,A16G C79A C93U A115U C129U U144C,≤ -4.2
2,A16U A24U G94C C116U G141C,≤ -4.2
3,A16G A20U A21U C85A U109G,≤ -4.2
4,A16G C36A G80U C99U G126C U148C,≤ -4.2
5,A16U G84U C131U G136C,≤ -4.2
6,A17C G81C G100C C118U,≤ -4.2
7,A17G A28U A49U G58C G86A A115U C125U A142U A150U,≤ -4.2
8,A16U A21G C27U A89G A106C,≤ -4.2
9,A17U G83U,-1.65
10,A16G G50A G65C C93U A115U U134A,≤ -4.2
11,A17G C54U C57G C85G A98C A115G G152A,≤ -4.2
12,C18A A20U A22U C85U G88A C108U G143A,≤ -4.2
13,A17U G71C C96A A119U U139A U148C,≤ -4.2
14,A16G A17U A26C G42C C43U G70A U102C G140C,≤ -4.2
15,A17U A19G U44A C103A C125U,≤ -4.2
16,A17C A37C A52U G83U,-3.08
17,A17U A22U A26G C36G A66G C85U C99A,≤ -4.2
18,A17G A29C A107U U135G,≤ -4.2
19,A16G A41G U53G A73U G88A C125U G133U,≤ -4.2
20,A17U C32U G128U,≤ -4.2
21,A17G C38U C54U C87A C103G A147G,≤ -4.2

row,Variant,polymerase ribozyme fitness (log ratio)
1,A17G C36U C93G,-3.8
2,A16G C57A G86C G124U,-3.24
3,A17C A41U U56A C99U A121G A147G,-3.04
4,A16U G34A C76U U146G,≤ -4.2
5,A16G A39U C43G G50U G67C U109A U134A U139C,≤ -4.2
6,A16G A23U A28G C35U U82A,≤ -4.2
7,A17C U33C G42C C51A U53A U139G A142G,≤ -4.2
8,A17U A19G A22U A49C U55C A64U C93A,≤ -4.2
9,A16G A17C U31A U55G C57G A115C U135A,-3.86
10,A17G A20U C32G U45C C54A G65C C108U,≤ -4.2
11,A16U A19U A26C A37C G74C A89C G94A C108U A113G G136A,≤ -4.2
12,A17C A19C A73G C96U C123U C125G,-3.23
13,A16G U31A G50C G80C C95U A122U,≤ -4.2
14,A17G G84A C93A A98G C129G,≤ -4.2
15,A17U U45A U56A C57U C93A A107U A120G G141U,≤ -4.2
16,A16C U31C G50A G86A,-3.16
17,A17U A29C A41G G59C C85G U145A,≤ -4.2
18,A16G C27G C93A G112C,≤ -4.2
19,A17G C38U U77C C96A U148C,≤ -4.2
20,A16U G46C G83A A120G,≤ -4.2
21,A17C G88U C95A G117C C129U U148C,≤ -4.2

row,Variant,polymerase ribozyme fitness (log ratio)
1,A16C U101G U127A,-3.71
2,A17G A41U A73U C85G C87A C99A G100A,≤ -4.2
3,A16U G83A A106G A107C C118U C123G C129G A150G,≤ -4.2
4,A17G A24C C96U G100C U144G U151A,≤ -4.2
5,A16U U61A C87G C96A G124A G126U U144A,≤ -4.2
6,A16C G88A C116G,-4.19
7,A16U U56A C79U G84A C108G C118G U139C,≤ -4.2
8,A16G U148C,-2.77
9,A16G U55A G83A G117U,-1.7
10,A16G A37U A60U G71C G84A C116A G124C U146G,≤ -4.2
11,A16G A20U G46U A60G A138C,≤ -4.2
12,A17U A29C A66C C95A C132G,≤ -4.2
13,A17G C35U C93A C96A,≤ -4.2
14,A17U C57U G136A,0.435
15,A17U G34U U56A C69A C96G,≤ -4.2
16,A16G A29U A47C G48C C57A G124U C125G C131U,≤ -4.2
17,A17G G70U U82G C114A,≤ -4.2
18,A16U G80C G92A A97U A119C U130G U151A,≤ -4.2
19,A17U C57G U61A G67C G83C G92U G128A,≤ -4.2
20,A17U A22G G67C U82C G86U A97U G140U,≤ -4.2
21,A16G C18U A24U C38U A49C G50A G88C C105U G117U,≤ -4.2
